# Measured values taken from a collection of fitness landscapes (doi:10.1016/j.celrep.2020.107928).
# The full ranking holds about 81,000 sequences; the median of “one-hybrid fitness for binding parS DNA” is about -0.17, and the highest 2% start at about 0.51. The list shows a part of the results.
# B1: Caulobacter ParB omega fusion; a variant is named by its letters at X, in order, B8GW30 (parent)
# chain: MESVVVGEPGMSEGRRGLGRGLSALLGEVDAAPAQAPGEQLGGSREAPIEILQRNPDQPRRTFREEDLEDLSNSIREKGVLQPILVRPSPDTAGEYQIVAGERAWRAAQRAGLKTVPIMVRELDDLAVLEIGIIENVQRADLNVLEEALSYKVLMEKFERTQENIAQTIGKSXSHVANXMRLLXLPDEVQSYLVSGELTAXHARAIAAAADPVALAKQIIEGGLSVRETEALARKAPNLSAGKSKGGRPPRVKDTDTQALESDLSSVLGLDVSIDHRGSTGTLTITYATLEQLDDLCNRLTRGI
# Variants of: B1
# Assay: one-hybrid fitness for binding parS DNA (scaled: cognate 1, non-cognate 0); higher = stronger binding
# Conditions: with parS DNA site
# In short: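 Caulobacter ParB libraries with four specificity codons randomised were screened by bacterial one-hybrid selection in the E. coli USO strain, using a HIS3 reporter whose site lies 19 bp from the promoter. Selection ran for 48 hours at 37°C on M9 lacking histidine, with 0.1 mM IPTG and 5 mM 3-AT. Plasmids were Illumina-sequenced before and after selection, three replicate libraries were pooled, and variants with under 10 reads were dropped. Fitness is the log change in each variant's read ratio to wild type, rescaled against the cognate and non-cognate sites.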
row,Variant,one-hybrid fitness for binding parS DNA
1,RKSK,≤ 0.2
2,GYRT,≤ 0.2
3,TNVG,≤ 0.2
4,YNSL,≤ 0.2
5,LTPT,≤ 0.2
6,TYIG,≤ 0.2
7,LRFF,≤ 0.2
8,NPDI,≤ 0.2
9,RTWK,≤ 0.2
10,LIYH,≤ 0.2
11,KVLR,≤ 0.2
12,PDSM,≤ 0.2
13,KNTC,≤ 0.2
14,TKKT,≤ 0.2
15,HRCQ,≤ 0.2
16,RDPR,≤ 0.2
17,VMDM,≤ 0.2
18,WQHG,≤ 0.2
19,WTYC,≤ 0.2
20,MSIN,≤ 0.2
21,CEKS,≤ 0.2
22,PYDI,≤ 0.2
23,NATM,≤ 0.2
24,QWPV,≤ 0.2
25,MPIS,≤ 0.2
26,VRVC,≤ 0.2

row,Variant,one-hybrid fitness for binding parS DNA
1,PKRH,≤ 0.2
2,FGAA,≤ 0.2
3,IWSK,≤ 0.2
4,RRCH,≤ 0.2
5,GINA,≤ 0.2
6,KQKA,≤ 0.2
7,ASRE,≤ 0.2
8,IRHT,≤ 0.2
9,IRHP,≤ 0.2
10,GARW,≤ 0.2
11,AEWH,≤ 0.2
12,HPQR,≤ 0.2
13,SYKQ,≤ 0.2
14,CRTS,≤ 0.2
15,VDRE,≤ 0.2
16,TGIP,≤ 0.2
17,GSKR,≤ 0.2
18,GQLT,≤ 0.2
19,IHLR,≤ 0.2
20,PGLY,≤ 0.2
21,EHRN,≤ 0.2
22,FSSC,≤ 0.2
23,KCGN,≤ 0.2
24,QRDL,≤ 0.2
25,DPTR,≤ 0.2
26,TPTC,≤ 0.2

row,Variant,one-hybrid fitness for binding parS DNA
1,CEVR,≤ 0.2
2,AKQT,≤ 0.2
3,RTKL,≤ 0.2
4,KMAC,≤ 0.2
5,GASD,≤ 0.2
6,TNQE,≤ 0.2
7,PRQY,≤ 0.2
8,VTQC,≤ 0.2
9,MCAT,≤ 0.2
10,YLIL,≤ 0.2
11,NYHY,≤ 0.2
12,QPWC,≤ 0.2
13,VHST,≤ 0.2
14,LSEG,≤ 0.2
15,TIHS,≤ 0.2
16,APSK,≤ 0.2
17,RFPN,≤ 0.2
18,ISWC,≤ 0.2
19,TSNR,≤ 0.2
20,KRKL,≤ 0.2
21,QANT,≤ 0.2
22,GRFE,≤ 0.2
23,ILVY,≤ 0.2
24,AYVC,≤ 0.2
25,KLVV,≤ 0.2
26,NHFR,≤ 0.2

row,Variant,one-hybrid fitness for binding parS DNA
1,CRSG,≤ 0.2
2,DLMH,≤ 0.2
3,TCYV,≤ 0.2
4,AVRL,≤ 0.2
5,SSFE,≤ 0.2
6,HGQT,≤ 0.2
7,KTTE,≤ 0.2
8,RPWS,≤ 0.2
9,WANC,≤ 0.2
10,KARE,≤ 0.2
11,MYRF,≤ 0.2
12,VNLE,≤ 0.2
13,HYSG,≤ 0.2
14,LLWK,≤ 0.2
15,DTHA,≤ 0.2
16,TYAC,≤ 0.2
17,LLGS,≤ 0.2
18,SENV,≤ 0.2
19,SDWM,≤ 0.2
20,EGQC,≤ 0.2
21,ACRN,≤ 0.2
22,VMNA,≤ 0.2
23,LLMY,≤ 0.2
24,QSED,≤ 0.2
25,YCYF,≤ 0.2
26,KDTC,≤ 0.2

row,Variant,one-hybrid fitness for binding parS DNA
1,RAQR,≤ 0.2
2,QTCG,≤ 0.2
3,LKIC,≤ 0.2
4,PRQT,≤ 0.2
5,IKEV,≤ 0.2
6,INLG,≤ 0.2
7,TFYF,≤ 0.2
8,MHIY,≤ 0.2
9,CTAF,≤ 0.2
10,TPSC,≤ 0.2
11,NGGV,≤ 0.2
12,TGCD,≤ 0.2
13,EWLR,≤ 0.2
14,KKCN,≤ 0.2
15,CCGT,≤ 0.2
16,PNAD,≤ 0.2
17,FVWC,≤ 0.2
18,TTVI,≤ 0.2
19,CCVE,≤ 0.2
20,THAS,≤ 0.2
21,HSDM,≤ 0.2
22,THHC,≤ 0.2
23,LDQT,≤ 0.2
24,MTHS,≤ 0.2
25,MICR,≤ 0.2
26,LRWY,≤ 0.2

row,Variant,one-hybrid fitness for binding parS DNA
1,LSSD,≤ 0.2
2,TMCG,≤ 0.2
3,FRLG,≤ 0.2
4,IDQR,≤ 0.2
5,LLVL,≤ 0.2
6,VMES,≤ 0.2
7,VPEG,≤ 0.2
8,GSLF,≤ 0.2
9,PTYQ,≤ 0.2
10,IHSC,≤ 0.2
11,DCWS,≤ 0.2
12,PIPD,≤ 0.2
13,DIAV,≤ 0.2
14,TSGI,≤ 0.2
15,IANN,≤ 0.2
16,VMSC,≤ 0.2
17,HPGQ,≤ 0.2
18,KFLG,≤ 0.2
19,MRHF,≤ 0.2
20,KDLS,≤ 0.2
21,GQYL,≤ 0.2
22,MAAI,≤ 0.2
23,QSFV,≤ 0.2
